# Measurements published in PubChem BioAssay (Tox21).
# “And” between values parts separate entries of the source, which are not always exact repeats. Equal entries are not always repeated. For part of these data: Most of the hits are listed elsewhere, so they are rarer here than in the full data. Inconclusive results are not listed. Some compounds were tested as several samples or in several runs, with calls that do not always agree. The list shows a part of the results, in another mix than the full data. The source made the active and inactive calls. Unless noted, the call rests on the fitted dose curve; in most records, active means well fitted curve in the direction sought with a large enough effect in the repeat runs; inconclusive means weak or mixed curves; inactive means no such curve, though single readings can be large; an effect the other way counts as inactive or inconclusive.
# How the values were obtained:
# [1] = qHTS assay to identify small molecule antagonists of the estrogen related receptor signaling pathway with the pleiotropic PPARgamma coactivator (PGC) from Tox21 10K library - cell viability counter screen (AID 1224840; active means well fitted cell-killing curve with a large enough effect in the repeat runs, not every such curve was filed as active; further: nearly all actives have a fitted effect of over 40% in size; further: potency means the concentration at half of the fitted maximal effect)
# In short: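 Fluorescence read-out of CellTiter-Fluor viability reagent, added after cells had been exposed to compound in DMSO for 17.5 h at 37 C; 30 min development at 37 C/5% CO2. Cells: PGC/ERR line, 2,000/well.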
# [2] = qHTS assay to identify small molecule antagonists of the estrogen receptor beta (ER-beta) signaling pathway - cell viability counter screen (AID 1259382); further: nearly all actives have a fitted effect of over 55% in size; further: potency means the concentration at half of the fitted maximal effect;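 on activity change, negative = cytotoxicity: HEK293T cells carrying ER-beta-UAS-bla reporter stimulated with estradiol; on the % scale 0 is the no-effect control and ±100 the full control effect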
# In short: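 Luminescent ATP read-out (CellTiter-Glo, 30 min, RT) taken in the same wells as the bla reporter assay. HEK293T ER-beta-UAS-bla cells in 2% charcoal-stripped FBS were exposed to compounds with 1nM E2 for 16 hr at 37C.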
# [3] = qHTS assay for small molecule activators of the heat shock response signaling pathway - cell viability counter screen (AID 743209); conditions: HSE-bla HeLa viability, CellTiter-Glo luminescence, 5 h; further: potency means the concentration at half of the fitted maximal effect; nearly all actives have a fitted effect of over 50% in size
# In short: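 HSE-bla HeLa; 1500 cells/well; overnight 37 C, 5% CO2; compound 5 h 37 C; LiveBLAzer B/G substrate 2.5 h RT; CellTiter-Glo 30 min RT; luminescence.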
# [4] = qHTS assay to identify small molecule antagonists of the estrogen related receptor (ERR) signaling pathway from Tox21 library - cell viability counter screen (AID 1224834); conditions: ERR reporter cells viability, CellTiter-Fluor, 17.5 h; further: potency means the concentration at half of the fitted maximal effect; nearly all actives have a fitted effect of over 30% in size
# In short: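 Multiplexed viability counter screen in ERR cells: 17.5 h compound exposure at 37 C, CellTiter-Fluor added, 30 min at 37 C/5% CO2, fluorescence read.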
# [5] = qHTS assay to identify small molecule antagonists of the androgen receptor (AR) signaling pathway - cell viability counter screen (AID 743033; further: potency means the concentration at half of the fitted maximal effect; nearly all actives have a fitted effect of over 45% in size); conditions: AR-bla HEK293 viability, CellTiter-Glo luminescence, 16 h
# [6] = qHTS assay to identify small molecule antagonists of the androgen receptor (AR) signaling pathway using the MDA cell line - cell viability counter screen (AID 743041; further: nearly all actives have a fitted effect of over 45% in size; further: potency means the concentration at half of the fitted maximal effect)
# In short: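 qHTS viability read-out; MDA-kb2 AR-luc; R1881-stimulated; 16 h exposure at 37C, 0% CO2; CellTiter-Fluor, 30 min; fluorescence intensity.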
# [7] = qHTS assay to identify small molecule agonists of the peroxisome proliferator-activated receptor delta (PPARd) signaling pathway - cell viability counter screen (AID 743211); conditions: PPARd-bla HEK293H viability, CellTiter-Glo luminescence, 17 h; further: potency means the concentration at half of the fitted maximal effect; nearly all actives have a fitted effect of over 55% in size
# In short: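 PPARd-bla HEK293H cells (UAS-beta-lactamase reporter) were treated with compounds for 17 h at 37 C. Viability was then read in the same wells by CellTiter-Glo luminescence after 30 min at room temperature.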
# [8] = qHTS assay to identify small molecule antagonists of the constitutive androstane receptor (CAR) signaling pathway - cell viability counter screen (AID 1224837); conditions: HepG2-CYP2B6-hCAR viability, CellTiter-Fluor, 23 h; co-treated with 50 nM CITCO; further: potency means the concentration at half of the fitted maximal effect; nearly all actives have a fitted effect of over 45% in size
# Description: National Center for Advancing Translational Sciences [NCATS]
# NIH Chemical Genomics Center [NCGC]
# U.S. Environmental Protection Agency [EPA]
# National Institutes of Environmental Health Sciences [NIEHS]
# National Toxicology Program [NTP]
# U.S. Food and Drug Administration [FDA]
# The constitutive androstane receptor (CAR) is a nuclear receptor which regulates multiple drug metabolizing enzymes (DMEs) and transporters. Activating CAR will generally increase the transcription and subsequent translation of CYP2B6 and CYP3A4. These two DMEs represent about 50% of the drug metabolizing potential in the body. When CAR is deactivated, the metabolizing potential in the body will decrease, subsequently increasing the toxicity in the body or lowering the therapeutic potential of a pro-drug. Recently, there have also been studies performed indicating CARs role in energy metabolism and cancer therapy. Therefore, inhibiting CARs activity could have a potential effect on diabetes and cancer. […]
# A double-stable (hCAR and CYP2B6-2.2kb) transfected cell line, derived from human hepatoma (HepG2) cells, was utilized for the duration of the quantitative high-throughput screens. […] The fluorescence intensity in the plates was then measured using a ViewLux plate reader.
# [9] = qHTS assay to identify small molecule antagonists of the farnesoid-X-receptor (FXR) signaling pathway - cell viability counter screen (AID 743221; active means well fitted cell-killing curve with a large enough effect in the repeat runs, not every such curve was filed as active; further: on the % scale 0 is the no-effect control and ±100 the full control effect; nearly all actives have a fitted effect of over 50% in size); conditions: FXR-bla HEK293T viability, CellTiter-Glo luminescence, 16 h; at 62.6 µM (top of the series)
# In short: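 FXR-UAS-bla HEK 293T cells were treated with test compounds plus chenodeoxycholic acid (50 uM final) for 16 h at 37 C. Cell viability in the same wells was then read as CellTiter-Glo luminescence after 30 min at room temperature.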
# [10] = qHTS assay to identify small molecule agonists of the vitamin D receptor (VDR) signaling pathway - cell viability counter screen (AID 743224); conditions: VDR-bla HEK293T viability, CellTiter-Glo luminescence, 16 h; further: potency means the concentration at half of the fitted maximal effect; nearly all actives have a fitted effect of over 50% in size
# In short: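 Cytotoxicity counter screen: VDR-bla cells, 16 h compound exposure at 37C, 5% CO2; CellTiter-Glo luminescence, 30 min RT, same wells as bla read.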
compound,measurement,setting,value
Nc1cccc2c(N)cccc12,Potency,[1],inactive
Cc1ccc(-c2cc(C(F)(F)F)nn2-c2ccc(S(N)(=O)=O)cc2)cc1,Potency,[2],active: 54.3 µM
NC(=NCCCCCCN=C(N)/N=C(\N)Nc1ccc(Cl)cc1)/N=C(\N)Nc1ccc(Cl)cc1,Potency,[3],active: 43.2 µM
CC(C)(C)c1ccc(O)c(O)c1,Potency,[4],active: 61.1 µM
CN(C)c1ccc(N=NS(=O)(=O)O)cc1,Potency,[1],inactive
CC(=O)[C@H]1CC[C@H]2[C@@H]3CCC4=CC(=O)CC[C@]4(C)[C@H]3CC[C@]12C,Potency,[5],active: 27.4 µM
Cc1cc(Cc2cc(C)cc(C(C)(C)C)c2O)c(O)c(C(C)(C)C)c1,Potency,[5],active: 19.5 µM
CCCCCCCC[Si](OCC)(OCC)OCC,Potency,[6],inactive
S=C(NC1CCCCC1)NC1CCCCC1,Potency,[5],active: 19.5 µM
N=C1N=C(N)c2cc3ccccc3cc21,Potency,[7],active: 49 µM
same,Potency,[8],active: 24.3 µM
CC(CN1c2ccccc2Sc2ccccc21)N(C)C (configuration not stated),Potency,[6],inactive
same,"activity change, negative = cytotoxicity",[9],inactive: -26%
c1ccc2occc2c1,Potency,[5],active: 54.9 µM
same,Potency,[2],inactive
NC(=Nc1ccccc1)Nc1ccccc1,Potency,[8],active: 2.17 µM
NCCNc1cccc2ccccc12,"activity change, negative = cytotoxicity",[9],inactive: -25.4%
Nc1c2ccccc2nc2ccccc12,Potency,[7],active: 54.2 µM
same,Potency,[10],active: 24.2 µM
CC(C)CCCCCCc1ccc(O)cc1,Potency,[6],inactive
same,Potency,[1],active: 2.78 µM
NC(=O)N/N=C/c1ccc([N+](=O)[O-])o1,Potency,[5],active: 54.9 µM
same,Potency,[6],active: 54.5 µM
S=c1[nH]c2ccccc2s1,Potency,[5],active: 49 µM
Oc1c(Cl)cc(Cl)cc1Sc1cc(Cl)cc(Cl)c1O,Potency,[6],active: 43.4 µM and active: 68.6 µM
Nc1ccc([N+](=O)[O-])cc1O,Potency,[4],active: 27.3 µM
COc1ccc2cc3[n+](cc2c1OC)CCc1cc2c(cc1-3)OCO2,Potency,[5],active: 11 µM
